According to the supplement of paper PMC3334620:
In all, about 33,000 sequences were measured (“E-score (-0.5 to 0.5)”: median about -0.036, highest 2% from about 0.37 on). The list shows a part of the results.

molecular target: T1, Yer064c (UniProt P40041); assay: PBM E-score (8-mer binding enrichment) (E-score (-0.5 to 0.5)); higher = stronger / more preferred TF binding; most listed sequences are background and not binding sites; conditions: protein concentration: 200 nM; construct: GST-full length
T1 sequence: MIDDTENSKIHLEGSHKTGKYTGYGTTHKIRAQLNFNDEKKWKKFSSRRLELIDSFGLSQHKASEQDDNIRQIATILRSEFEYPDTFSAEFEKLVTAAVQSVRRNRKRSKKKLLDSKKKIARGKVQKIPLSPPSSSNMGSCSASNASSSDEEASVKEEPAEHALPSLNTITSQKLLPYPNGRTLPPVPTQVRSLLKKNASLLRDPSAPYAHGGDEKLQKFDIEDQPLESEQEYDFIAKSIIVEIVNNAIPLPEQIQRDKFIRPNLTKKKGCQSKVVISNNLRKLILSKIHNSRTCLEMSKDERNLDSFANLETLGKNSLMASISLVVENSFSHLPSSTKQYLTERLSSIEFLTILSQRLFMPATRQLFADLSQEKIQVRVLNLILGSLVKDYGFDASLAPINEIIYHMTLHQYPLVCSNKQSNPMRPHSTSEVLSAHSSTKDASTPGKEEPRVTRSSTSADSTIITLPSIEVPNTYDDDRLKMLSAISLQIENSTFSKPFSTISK
Method in brief: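 Universal all-10-mer Agilent arrays, double-stranded by primer extension on fresh or once-stripped slides, were probed with about 100-200 nM GST-tagged yeast transcription factors made by PURExpress. Fluorescent anti-GST detected bound protein, and masliner normalised the scans. E-scores from the Universal PBM Analysis Suite were given to each ungapped eight-base word pooled with its reverse complement.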

Sequence | PBM E-score
CTATTCCC | -0.179
ATTGGGAA | 0.00164
GCGGCCCA | -0.19
GACGTTCA | -0.12
TGCTTTAA | 0.0103
CATGTTCA | -0.244
AATCCTGA | 0.175
CCGAGTGC | 0.0704
CCCTTACA | -0.0568
CGTATACA | -0.0369
CACGAATC | 0.359
ATTAGTAA | 0.12
ATCGTTCG | 0.0337
GAGCCCTA | -0.118
GTTCTTGA | -0.0575
CATCCATC | -0.0508
GCGTCGAC | 0.1
AGCTGTCA | -0.0221
AACGGCTC | 0.0682
CTCCACTC | -0.18
CGCCTTAG | -0.29
CAGAAACC | -0.0269
CACAGGGA | -0.166
CGTTCGGA | -0.0482
AACGCCCA | -0.237

Sequence | PBM E-score
CAAGGCTG | -0.116
GGCAGTCA | 0.445
CATTCACC | -0.166
CGTGCGTC | -0.13
CCTAAAAG | 0.0342
CAGGAAAG | -0.0583
AACGTACA | -0.132
GGTAACTA | 0.0844
CGGCCGGC | -0.134
ACTGTGGC | -0.0765
ACGCGTGA | 0.213
CGTTGATC | 0.0563
GAGGAGCC | 0.00368
CCTAGCCC | -0.253
AAAGATGT | -0.14
CACAGGCA | -0.0869
AACGGAGA | -0.142
ATATCGCG | -0.0791
GCTAGTAA | -0.0158
ACTCCAGG | 0.19
GAGTTCGC | 0.0786
CAATCTAA | -0.0475
AGTGTATA | -0.0556
AGGTTCAC | -0.302
CGCGTGAG | 0.115

Sequence | PBM E-score
AGCGAGCT | -0.144
AAACTACT | 0.113
GACCGGTA | -0.0165
AATTCCGC | -0.24
AAAAGCAT | -0.188
GATTCAAC | 0.385
GTGCGGAA | 0.0343
ATGACCAC | 0.193
GGACCATA | -0.109
CAGTCTGC | 0.0403
GGGGCTTA | -0.206
AGGGACAC | -0.00854
ACTTCACG | 0.015
ACTTTAGA | 0.118
AAACACCG | -0.105
ACGATAGC | -0.117
AGCGACGC | -0.273
ACGCATTC | -0.0249
CACAGATA | -0.0649
CTTAATTC | 0.0121
GGATCACC | -0.126
GACAGCGA | -0.0725
GGAATCCC | -0.166
ACCTATTG | -0.151
GTACGACA | 0.0153

Sequence | PBM E-score
GGTTATTA | 0.0159
ATCACCCA | 0.135
AGCACCCG | -0.167
GCGGCTCC | -0.332
CGCTTAGC | -0.157
ACGAATAT | -0.203
CCGTGGCA | -0.141
AGGTAAAC | -0.0177
AGCTCTAT | -0.089
CATATCCG | -0.0624
GAATCCAC | 0.0482
CGTGCAAG | -0.0837
CAACGTGC | -0.137
CTCCGTCC | -0.256
AGCACCAT | -0.322
ATATAGCG | -0.253
GTGGAAAC | -0.0987
ACAGGTCT | -0.0459
CATAAACA | 0.00551
GAGTACAC | 0.318
CTAGGTTA | 0.0169
CGTTTAGC | 0.0534
ATTAGCGG | -0.138
AAATTGAG | 0.0433
ATAACCGC | 0.0483

Sequence | PBM E-score
AACCCTTG | -0.178
ATCAGGCG | 0.126
AATGCACA | -0.0113
CATCGGAA | -0.0521
AGCTAATA | 0.135
CGAATGCC | -0.306
CCTCATCG | -0.207
GAGGTAGA | -0.141
ATGCCGCG | -0.22
CTTTAGTC | 0.416
GCCAGTAC | -0.00912
CTTAAACA | 0.268
CTAGGGGC | -0.216
CTAGACTA | 0.17
GACTGGAC | 0.138
ACTACTGG | 0.177
ATCGAGGG | -0.268
CGCAACCC | -0.0826
CTGTCAGC | -0.18
ACAAATCC | -0.0439
CCGTAAGC | -0.145
AACACGGG | -0.204
GGGTCATA | 0.125
GTGGTCGA | -0.157
AGATCCTA | -0.0884

Sequence | PBM E-score
CCTCGCCA | -0.303
GGCGGCTA | 0.0443
AGACGCAC | -0.218
CCACGTGG | -0.261
TTCGAGAA | 0.0366
ACCCACGC | 0.114
CACCTTGA | -0.137
CCACGTGC | -0.111
GACTGGCC | 0.127
AAGACTAC | 0.413
GCATCAAA | 0.1
CCCACTAC | -0.0519
ATAGACTA | 0.316
ATCCAAGC | -0.146
AAGCAAGT | 0.0544
CATCTACA | 0.108
CCGAGTCG | 0.261
AACCTGCG | -0.289
TAACGGCA | -0.0892
ACACTCAC | 0.188
ACTCATGC | 0.378
ACTCTTAA | 0.241
CAGCCAAA | 0.0544
CGCTTTCC | -0.249
AAGTGGTG | -0.155

Sequence | PBM E-score
AGTTTCTA | 0.0581
GCCGAGAA | -0.121
CTTTCAGC | -0.134
AACCCCTT | -0.19
CGGCTATA | -0.00264
AGTGCGCC | -0.288
TCGATTAA | 0.26
CTTACCTA | -0.165
GACTCGAC | 0.391
CAAGCACC | -0.261
CTCCAAAA | 0.0696
CATGGAGG | -0.124
ACCACACG | 0.0547
GCCTGGTA | -0.135
CTAGCGCC | -0.0965
GGTCTAAC | 0.0653
GCTGTTAC | -0.238
CACTACCA | -0.0175
AAGTGTGC | -0.218
AACCAACT | 0.202
GTAGAGAC | 0.0689
ACATAACC | -0.0712
